Whole data set: some 33,000 sequences, median “E-score (-0.5 to 0.5)” near -0.04, cut for the highest 2% near 0.36. The list shows a part of the results.
Biological target: T1, Hmlalpha2 (UniProt P0CY09)
T1 sequence: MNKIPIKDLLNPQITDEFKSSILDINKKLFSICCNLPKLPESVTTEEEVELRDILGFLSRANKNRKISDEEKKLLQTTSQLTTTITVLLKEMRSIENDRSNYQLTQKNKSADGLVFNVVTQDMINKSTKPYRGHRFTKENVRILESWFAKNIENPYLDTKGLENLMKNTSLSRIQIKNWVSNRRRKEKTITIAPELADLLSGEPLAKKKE
Assay: PBM E-score (8-mer binding enrichment) (E-score (-0.5 to 0.5)); higher = stronger / more preferred TF binding; most listed sequences are background and not binding sites
Settings: protein concentration: 200 nM; construct: GST-full length
How it was run: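 Bound GST-tagged yeast transcription factors, applied at about 100-200 nM to double-stranded universal all-10-mer Agilent arrays, were detected with fluorescent anti-GST. Scans were normalised with masliner. A modified Wilcoxon-Mann-Whitney statistic, the E-score, was assigned to each ungapped eight-base word pooled with its reverse complement by the Universal PBM Analysis Suite.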

| Sequence | PBM E-score |
| --- | --- |
| CAATGGAG | -0.138 |
| TACCCGCA | 0.0649 |
| CAAGAAAA | 0.0858 |
| AGTCACCG | -0.182 |
| AGAAACCC | 0.0172 |
| AGCAGCCA | -0.0603 |
| TAATGTAA | 0.431 |
| GACTTGAA | -0.231 |
| CCCTGAAG | -0.314 |
| CCCTGGGA | -0.252 |
| CAACTACA | 0.316 |
| GCCAGCCA | -0.239 |
| ATGTACCA | 0.22 |
| CGGTGGAC | -0.136 |
| CCTGGAGA | -0.152 |
| GACATGGA | 0.263 |
| CCTCCTCC | -0.124 |
| CACTCGAG | -0.178 |
| GATCGATC | -0.143 |
| GATGTGAC | -0.0742 |
| CCTTGTAC | 0.327 |
| CCCCATAC | -0.252 |
| AGTTTTGG | 0.0681 |
| AGCTCAGG | -0.134 |
| GTGACCTA | -0.0194 |

| Sequence | PBM E-score |
| --- | --- |
| CGTGGTAG | -0.0742 |
| AAATCCGA | 0.0207 |
| CGCTGATC | -0.177 |
| GCGGTCTA | 0.241 |
| CCAAGGTC | -0.204 |
| ACGCAGCT | 0.273 |
| AGCAATTG | 0.0454 |
| GGAACCAC | -0.093 |
| CATCCAGG | -0.233 |
| CACTATAA | 0.0678 |
| ATATACTC | 0.0152 |
| AAGCCGGC | -0.151 |
| AGCGTATA | 0.104 |
| AGGGCATC | -0.221 |
| CATGCGTA | 0.358 |
| TGCACGCA | 0.037 |
| CCAAGAAA | -0.0334 |
| AATACTAA | 0.134 |
| GGTAGGAA | -0.0956 |
| ATCAAAAT | 0.0538 |
| AACGTTCA | 0.085 |
| TAACCGAA | -0.0258 |
| ATCTGATC | 0.0656 |
| CCGTCGCC | -0.338 |
| ACGGACTA | -0.0398 |

| Sequence | PBM E-score |
| --- | --- |
| AAACAGAC | 0.116 |
| GGTGAATA | -0.0571 |
| CGCTTAAG | -0.0159 |
| GCGTACTA | 0.208 |
| AAGACGAT | 0.0721 |
| ATGAGCAA | 0.0378 |
| AGCGCGCC | -0.274 |
| CACTAACC | -0.0939 |
| AGGACAGC | -0.143 |
| GACACCCC | -0.202 |
| CGAAGTGA | -0.0369 |
| ACAAGTGA | 0.144 |
| GCACGAGC | -0.168 |
| ACGTTCGG | -0.313 |
| AGAAACAT | 0.294 |
| GCATAGAC | -0.0786 |
| AGGGACCA | -0.213 |
| GCTCCGCC | -0.322 |
| ACTGTTAG | -0.13 |
| AGTCTACC | -0.249 |
| AGAAACTC | -0.0164 |
| CCGGTCAC | -0.194 |
| CTCAACTC | -0.13 |
| ACCATCGG | -0.239 |
| AGCGCACT | -0.225 |

| Sequence | PBM E-score |
| --- | --- |
| GCTACTCA | -0.0384 |
| ATACAGGA | 0.0227 |
| AACGATCT | -0.0798 |
| ACCGCGTA | 0.353 |
| CCAACGGA | -0.242 |
| AAATCATG | 0.194 |
| CCGTAAAG | 0.0757 |
| GGCGCCCA | -0.178 |
| CTGGTGGA | -0.228 |
| CTTTTCAA | 0.0683 |
| GGAGCCCC | -0.314 |
| CAAAGAGC | -0.142 |
| ATTCAGCA | 0.051 |
| GAGGTTAC | 0.0883 |
| CGTAGACA | 0.108 |
| TGCCCCAA | -0.104 |
| CCTTGTGC | 0.0153 |
| CGCCGAGC | -0.112 |
| GAAAATAC | -0.0131 |
| CAGTATAC | 0.11 |
| AACGAATG | -0.0428 |
| CAAATACG | 0.177 |
| CGGGGTTC | -0.335 |
| GGGGGAAA | -0.291 |
| CTAAATGC | -0.0507 |

| Sequence | PBM E-score |
| --- | --- |
| AAAGGGAA | -0.0413 |
| CAACAGAA | 0.0264 |
| ATTAGAAG | -0.08 |
| AGGTTGCA | 0.149 |
| ATCCGAGG | -0.139 |
| AAATCGAA | -0.0852 |
| CAGACAAG | -0.0236 |
| GATGGTTA | -0.0146 |
| CCAGGAGG | -0.191 |
| CAGGCCAG | -0.243 |
| ATGCGAAG | 0.0105 |
| CCAAAATA | 0.0469 |
| AATCGATG | 0.177 |
| AAAGGTAC | 0.0621 |
| TCCCCCGA | -0.371 |
| ATACTGAG | 0.114 |
| CATGTCAC | 0.245 |
| AGACTGCA | -0.13 |
| AGCAGGTC | -0.0501 |
| CCAGGATC | -0.238 |
| ATCACTCG | -0.119 |
| AGCTGCAG | -0.168 |
| CCTAAAGG | -0.265 |
| GTTTTAGA | 0.0961 |
| CATCTGTC | -0.311 |

| Sequence | PBM E-score |
| --- | --- |
| CCAGTCCA | -0.37 |
| CCCAAATC | -0.104 |
| AACAGGAA | 0.208 |
| ATGTTAGA | 0.358 |
| CTATTATA | 0.0386 |
| CCTCCGAC | -0.259 |
| GGAGCGCC | -0.443 |
| CCACTACC | -0.291 |
| CCCGAGCC | -0.278 |
| CTAACACA | 0.376 |
| GCTCCTTA | -0.172 |
| TCGCCCCA | -0.165 |
| AACTACGA | 0.167 |
| AAGCACTA | 0.107 |
| CACTAGGA | -0.225 |
| TATTGGCA | 0.0557 |
| GTAGATTA | 0.343 |
| CTAGACAC | 0.185 |
| CCTAATTC | -0.0244 |
| ATAGGCTA | -0.13 |
| AAAAACCG | 0.11 |
| TGCAGGAA | -0.0766 |
| AAGACGGA | -0.155 |
| CTCGACCC | -0.0619 |
| TATCTGAA | -0.064 |

| Sequence | PBM E-score |
| --- | --- |
| GAAGAGAA | -0.234 |
| ATAGGAGC | -0.0655 |
| AATTTCGA | 0.113 |
| AACAGTTC | 0.0308 |
| CTCTTTGC | -0.182 |
| GTTAACAA | 0.366 |
| GGACCCCA | -0.164 |
| ACCTCTAC | 0.072 |
| CGGTGCAG | -0.207 |
| CAACTTTC | -0.149 |
| GAGAGGTA | -0.241 |
| CGTAACCC | 0.0355 |
| AATACTTC | 0.021 |
| ACATCGTC | 0.0921 |
| CATTGTCC | 0.0221 |
| GCGCCAAA | -0.182 |
| GTCGCACA | -0.0117 |
| GCCTCCGC | -0.217 |
| ACTCGACG | 0.16 |
| CCTCGGAC | -0.315 |
| GCCGTCCC | -0.192 |
| CCGATTAA | 0.106 |

Reference: the supplement of paper PMC3334620
